{
  "source": "paper PMC4336329",
  "about": "(PLoS ONE, 2015)",
  "note": "Among all 310,000 compounds or so, about 14,000 (4.5%) showed an effect of 50% or more. The effect is printed as a negative number. Some of the results follow.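 Note: peak tail current of the secondary pulse compared with the same well before compound.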",
  "data": [
    {"target": "human ether-à-go-go-related gene (hERG) potassium channel (human, UniProt Q12809)", "sequence (Q12809 whole entry, looked up)": "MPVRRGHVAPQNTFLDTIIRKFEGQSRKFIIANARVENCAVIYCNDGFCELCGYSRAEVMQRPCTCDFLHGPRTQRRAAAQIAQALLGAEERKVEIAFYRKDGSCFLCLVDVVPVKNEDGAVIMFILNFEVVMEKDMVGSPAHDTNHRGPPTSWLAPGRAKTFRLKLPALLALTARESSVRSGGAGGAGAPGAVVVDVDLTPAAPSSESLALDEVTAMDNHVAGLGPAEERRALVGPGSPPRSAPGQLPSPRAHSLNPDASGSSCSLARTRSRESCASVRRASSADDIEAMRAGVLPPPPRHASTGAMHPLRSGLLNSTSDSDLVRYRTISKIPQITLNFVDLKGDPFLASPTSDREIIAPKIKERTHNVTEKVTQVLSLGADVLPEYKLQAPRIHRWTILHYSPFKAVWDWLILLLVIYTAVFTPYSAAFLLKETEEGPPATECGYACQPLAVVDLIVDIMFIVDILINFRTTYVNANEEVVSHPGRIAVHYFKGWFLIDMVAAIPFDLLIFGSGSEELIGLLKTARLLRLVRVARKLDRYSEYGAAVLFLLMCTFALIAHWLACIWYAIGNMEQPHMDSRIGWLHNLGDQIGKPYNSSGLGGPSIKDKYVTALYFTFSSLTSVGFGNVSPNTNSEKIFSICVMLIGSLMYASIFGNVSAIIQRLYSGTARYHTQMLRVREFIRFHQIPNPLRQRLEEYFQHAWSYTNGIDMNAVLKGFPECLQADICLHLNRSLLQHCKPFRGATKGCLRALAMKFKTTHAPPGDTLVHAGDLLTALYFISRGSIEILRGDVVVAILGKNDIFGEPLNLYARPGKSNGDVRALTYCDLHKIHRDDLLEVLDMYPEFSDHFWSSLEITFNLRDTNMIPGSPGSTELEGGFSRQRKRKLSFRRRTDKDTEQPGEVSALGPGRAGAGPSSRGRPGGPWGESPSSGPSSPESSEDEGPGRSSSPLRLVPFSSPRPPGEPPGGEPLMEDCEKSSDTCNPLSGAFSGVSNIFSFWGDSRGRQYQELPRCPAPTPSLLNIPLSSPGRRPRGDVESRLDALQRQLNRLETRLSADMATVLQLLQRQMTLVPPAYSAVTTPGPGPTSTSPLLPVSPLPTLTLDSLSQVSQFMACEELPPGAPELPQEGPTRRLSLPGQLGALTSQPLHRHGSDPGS", "experiment": "primary screen, population patch clamp on CHO cells stably expressing hERG", "units": {"hERG current change (%, negative = inhibition) at 10uM": "%"}, "values": [
      {"smiles": "CCc1cccc(C)c1NC(=S)N(Cc1cccnc1)Cc1ccco1", "hERG current change (%, negative = inhibition) at 10uM": -15.5},
      {"smiles": "C=CCc1c(C)nc(SCC(N)=O)[nH]c1=O", "hERG current change (%, negative = inhibition) at 10uM": 9.73},
      {"smiles": "CCOC(=O)c1cn(CC(=O)Nc2ccc3c(c2)OCCO3)nn1", "hERG current change (%, negative = inhibition) at 10uM": -2.39},
      {"smiles": "COc1ccc(OC)c(S(=O)(=O)N2CCN(C(=O)c3cc(C4CC4)nn3-c3ccccc3)CC2)c1", "hERG current change (%, negative = inhibition) at 10uM": -11.1},
      {"smiles": "Cc1c(OCC(=O)NCc2ccncc2)ccc2c3c(c(=O)oc12)CCCC3", "hERG current change (%, negative = inhibition) at 10uM": 0.274},
      {"smiles": "C/C(Cc1ccccc1)=N\\NC(=O)CNC(=O)c1ccccc1O", "hERG current change (%, negative = inhibition) at 10uM": -7.74},
      {"smiles": "COc1cc(C)c(Cl)cc1S(=O)(=O)NCCCN1CCOCC1", "hERG current change (%, negative = inhibition) at 10uM": -7.72},
      {"smiles": "CC(=O)N(C(C)=O)c1cccc2c(N(C(C)=O)C(C)=O)cccc12", "hERG current change (%, negative = inhibition) at 10uM": 15.8},
      {"smiles": "Cc1n[nH]c(=O)n1-c1ccc(OCc2ccccc2)cc1", "hERG current change (%, negative = inhibition) at 10uM": 12.6},
      {"smiles": "CCOc1ccccc1NC(=O)NC1(C(=O)NCc2cccnc2)CCCCC1", "hERG current change (%, negative = inhibition) at 10uM": 14.9},
      {"smiles": "Cc1cc(C)c2nc(NC(=O)c3ccc4c(c3)OCO4)sc2c1", "hERG current change (%, negative = inhibition) at 10uM": -1.07},
      {"smiles": "CCOC(=O)c1[nH]c(C)c(C(=O)OCC(=O)N2CC(=O)Nc3ccccc32)c1C", "hERG current change (%, negative = inhibition) at 10uM": 22.2},
      {"smiles": "Cc1nc(-c2ccc(Cl)cc2)sc1C1(C)CC(c2cccc(Cl)c2)=NO1", "note": "(stereo not drawn)", "hERG current change (%, negative = inhibition) at 10uM": 6.2},
      {"smiles": "CC(C)C[C@H](NC(=O)N1CC(=O)Nc2ccccc21)C(=O)N1CCC[C@H]1C(=O)O", "hERG current change (%, negative = inhibition) at 10uM": 14.8},
      {"smiles": "COc1ccccc1C(CNC(=O)CNC(=O)c1ccccc1Cl)N1CCCC1", "note": "(stereo not drawn)", "hERG current change (%, negative = inhibition) at 10uM": 5.83},
      {"smiles": "O=S(=O)(NCc1ccc(F)cc1)c1ccc2c(c1)OCCO2", "hERG current change (%, negative = inhibition) at 10uM": -9.09},
      {"smiles": "O=C(Cc1cccs1)NCCn1ccc2ccccc21", "hERG current change (%, negative = inhibition) at 10uM": -6.95},
      {"smiles": "CCC(Oc1ccccc1)C(=O)Nc1ccc(-c2nnc(-c3ccco3)o2)cc1", "note": "(stereo not drawn)", "hERG current change (%, negative = inhibition) at 10uM": -38.7},
      {"smiles": "C/C(=N\\NC(=O)C(N)=O)c1ccc(OC(F)F)cc1", "hERG current change (%, negative = inhibition) at 10uM": 5.59},
      {"smiles": "CC(Oc1ccccc1F)C(=O)/C=C/N(C)C", "note": "(stereo not drawn)", "hERG current change (%, negative = inhibition) at 10uM": 24.6},
      {"smiles": "COc1cc2c(cc1OC)C(c1ccccc1O)N(C1CC(=O)N(c3ccccc3)C1=O)CC2", "note": "(stereo not drawn)", "hERG current change (%, negative = inhibition) at 10uM": -6.74},
      {"smiles": "CCOP(=O)(OCC)C(c1ccccc1)N(C)C=O", "note": "(stereo not drawn)", "hERG current change (%, negative = inhibition) at 10uM": -8.77},
      {"smiles": "O=S(=O)(NCC(c1ccccc1)N1CCNCC1)c1ccc(Cl)cc1", "note": "(stereo not drawn)", "hERG current change (%, negative = inhibition) at 10uM": -28.6},
      {"smiles": "CN(CCc1ccccn1)S(=O)(=O)c1ccc2c3c(cccc13)C(=O)N2", "hERG current change (%, negative = inhibition) at 10uM": -16.5},
      {"smiles": "Cc1ccc(S(=O)(=O)NC(CC(C)C)C(=O)N2CCOCCOCCOCC2)cc1", "note": "(stereo not drawn)", "hERG current change (%, negative = inhibition) at 10uM": 24.8},
      {"smiles": "O=C(OCCc1cc2ccccc2c(=O)o1)c1ccc2c(c1)OCO2", "hERG current change (%, negative = inhibition) at 10uM": 1.97},
      {"smiles": "O=C(NCc1ccccc1)c1cccn(Cc2ccccc2)c1=O", "hERG current change (%, negative = inhibition) at 10uM": -29.3},
      {"smiles": "CCCN1CN=C(NS(=O)(=O)c2ccc(C)cc2)NC1", "hERG current change (%, negative = inhibition) at 10uM": 16.7},
      {"smiles": "Cc1ccc(N2C(=O)Nc3ccccc3S2(=O)=O)cc1Cl", "hERG current change (%, negative = inhibition) at 10uM": 7.22},
      {"smiles": "CC(C)(C)Cc1nnc(NC(=O)CSc2ccccc2)s1", "hERG current change (%, negative = inhibition) at 10uM": 15.9},
      {"smiles": "CCCNC(=O)c1cc2ccccc2c(=O)o1", "hERG current change (%, negative = inhibition) at 10uM": 10.8},
      {"smiles": "COC(=O)[C@H](Cc1ccccc1)NS(=O)(=O)N[C@@H](Cc1ccccc1)C(=O)OC", "hERG current change (%, negative = inhibition) at 10uM": 0.0712},
      {"smiles": "COc1ccc2oc(=N)c(C(=O)Nc3ccc(C)cc3)cc2c1", "hERG current change (%, negative = inhibition) at 10uM": 24.1},
      {"smiles": "Cc1cccc(NC(=O)CN2CCN(CC(=O)NCc3ccc(Cl)cc3Cl)CC2)c1C", "hERG current change (%, negative = inhibition) at 10uM": -18.2},
      {"smiles": "Cc1ccc(C(=O)O/N=C(\\c2ccccc2)c2ccncc2)cc1", "hERG current change (%, negative = inhibition) at 10uM": -3.92},
      {"smiles": "Oc1c(C(c2cccs2)N2CCC3(CC2)OCCO3)sc2ncnn12", "note": "(stereo not drawn)", "hERG current change (%, negative = inhibition) at 10uM": 13.9},
      {"smiles": "Cc1c(C(=N)C(C#N)C#N)c(=N)oc2c1ccc1ccccc12", "hERG current change (%, negative = inhibition) at 10uM": 15.3},
      {"smiles": "COc1ncnc2c1oc1nc(C)c3c(c12)CC(C)(C)OC3", "hERG current change (%, negative = inhibition) at 10uM": -1.6},
      {"smiles": "Cc1ccc(N(CC(O)Cn2c3ccccc3c3ccccc32)S(C)(=O)=O)c(C)c1", "note": "(stereo not drawn)", "hERG current change (%, negative = inhibition) at 10uM": -5.76},
      {"smiles": "CCCCCNC(=O)C(=O)C1C(=O)Nc2ccccc21", "note": "(stereo not drawn)", "hERG current change (%, negative = inhibition) at 10uM": 22.2},
      {"smiles": "O=C(Cc1ccccc1[N+](=O)[O-])Nc1ccccc1C(=O)N1CCOCC1", "hERG current change (%, negative = inhibition) at 10uM": 15.1},
      {"smiles": "CCN(c1ccccc1)S(=O)(=O)c1cc(OC)ccc1OC", "hERG current change (%, negative = inhibition) at 10uM": 1.56},
      {"smiles": "COc1ccccc1/C=C/C(=O)NC(=S)N1CCN(C)CC1", "hERG current change (%, negative = inhibition) at 10uM": 6.42},
      {"smiles": "COc1ccccc1OCC(=O)NNC(=O)CSC(=S)N1CCCC1", "hERG current change (%, negative = inhibition) at 10uM": 4.5},
      {"smiles": "Cn1c(SCc2ccccc2)nnc1-c1ccco1", "hERG current change (%, negative = inhibition) at 10uM": 5.2},
      {"smiles": "CCN(Cc1ccncc1)Cc1nc(CC2CC2)no1", "hERG current change (%, negative = inhibition) at 10uM": 16.3},
      {"smiles": "O=C(CSc1ccc(-c2cccc([N+](=O)[O-])c2)nn1)N1CCCCCC1", "hERG current change (%, negative = inhibition) at 10uM": -26.3},
      {"smiles": "COc1ccc(C)cc1NC(=O)c1ccc(NS(=O)(=O)c2cccc3cccnc23)cc1", "hERG current change (%, negative = inhibition) at 10uM": 4.44},
      {"smiles": "Nc1cc(N)nc(SCC(=O)NCC2CCCO2)n1", "note": "(stereo not drawn)", "hERG current change (%, negative = inhibition) at 10uM": -4.72},
      {"smiles": "O=[N+]([O-])c1ccc(S(=O)(=O)c2cccc(C(F)(F)F)c2)nc1", "hERG current change (%, negative = inhibition) at 10uM": 9.77},
      {"smiles": "CCOc1ccc(CCN2C(=O)C3C4C=CC(C4)C3C2=O)cc1OCC", "note": "(stereo not drawn)", "hERG current change (%, negative = inhibition) at 10uM": 3.14},
      {"smiles": "O=C(C1=C[C@@H](c2ccc(Br)cc2)C[C@@H](OCCCCO)O1)N1CCN(Cc2ccc3c(c2)OCO3)CC1", "hERG current change (%, negative = inhibition) at 10uM": -55.3},
      {"smiles": "COc1ccc(-c2csc(C3=C(O)CN(CCCN4CCCC4=O)C3=N)n2)cc1OC", "hERG current change (%, negative = inhibition) at 10uM": 5.44},
      {"smiles": "Cc1ccc(C(=O)c2sc3nsc(C)c3c2N)cc1", "hERG current change (%, negative = inhibition) at 10uM": 11},
      {"smiles": "COc1ccc(OCC(O)COc2ccc(OC)cc2)cc1", "hERG current change (%, negative = inhibition) at 10uM": -6.73},
      {"smiles": "O=C(Nc1ccnn1C1CCN(C(=O)c2cccc(Cl)c2)CC1)C1CCOC1", "note": "(stereo not drawn)", "hERG current change (%, negative = inhibition) at 10uM": 14.5},
      {"smiles": "Cc1ccc(S(=O)(=O)N2CCOCC2)cc1NC(=O)COC(=O)c1cc(=O)c2ccccc2o1", "hERG current change (%, negative = inhibition) at 10uM": 3.42}
    ]}
  ]
}
